Measurements reported in the supplement of paper PMC3334620.
In all, about 33,000 sequences were measured (“E-score (-0.5 to 0.5)”: median about -0.012, highest 2% from about 0.29 on). This is one part of the list.

Target: T1, Ybr033w (UniProt P38073)
T1 sequence: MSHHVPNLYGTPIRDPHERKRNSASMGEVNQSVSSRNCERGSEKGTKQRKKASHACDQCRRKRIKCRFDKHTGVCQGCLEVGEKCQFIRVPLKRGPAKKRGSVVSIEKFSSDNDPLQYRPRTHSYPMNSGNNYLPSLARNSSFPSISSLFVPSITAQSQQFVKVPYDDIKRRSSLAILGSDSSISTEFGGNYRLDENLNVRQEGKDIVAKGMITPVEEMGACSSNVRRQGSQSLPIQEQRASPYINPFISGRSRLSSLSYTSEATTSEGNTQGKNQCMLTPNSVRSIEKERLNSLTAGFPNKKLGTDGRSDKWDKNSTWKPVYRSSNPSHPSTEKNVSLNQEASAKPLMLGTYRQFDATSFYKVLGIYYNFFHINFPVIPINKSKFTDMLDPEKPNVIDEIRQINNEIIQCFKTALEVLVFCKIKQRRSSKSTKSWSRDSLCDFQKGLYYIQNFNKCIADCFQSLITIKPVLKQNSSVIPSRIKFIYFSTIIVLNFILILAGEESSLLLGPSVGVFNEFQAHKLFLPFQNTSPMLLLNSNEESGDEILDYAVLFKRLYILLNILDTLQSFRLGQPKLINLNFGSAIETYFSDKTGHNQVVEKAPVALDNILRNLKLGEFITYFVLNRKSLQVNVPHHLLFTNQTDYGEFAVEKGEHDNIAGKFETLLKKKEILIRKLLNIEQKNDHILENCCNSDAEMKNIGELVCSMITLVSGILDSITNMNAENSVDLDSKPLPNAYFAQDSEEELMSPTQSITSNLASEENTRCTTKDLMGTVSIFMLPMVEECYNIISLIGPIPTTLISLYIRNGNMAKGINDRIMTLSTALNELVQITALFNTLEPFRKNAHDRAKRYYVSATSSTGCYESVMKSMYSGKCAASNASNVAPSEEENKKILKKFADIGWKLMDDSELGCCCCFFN
Test: PBM E-score (8-mer binding enrichment) (E-score (-0.5 to 0.5)); higher = stronger / more preferred TF binding; most listed sequences are background and not binding sites
Conditions: protein concentration: 200 nM; construct: GST-full length
Procedure: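 Universal 'all 10-mer' protein binding microarrays (Agilent AMADID 015681) probed with GST-tagged S. cerevisiae TFs (full-length or DBD) made by in vitro transcription/translation (PURExpress), about 100-200 nM. Bound TF was detected with fluorescent anti-GST. Each ungapped 8-mer (which stands for itself and its reverse complement) is scored by the PBM enrichment score (E-score), a modified Wilcoxon-Mann-Whitney statistic from -0.5 to +0.5, computed with the Universal PBM Analysis Suite. Scale: above 0.35 generally sequence-specific binding.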

In order of falling “PBM E-score” value:
1. AATGATTC  0.306
2. AAATTTGA  0.276
3. CTAATGAA  0.266
4. ACTTACAA  0.265
5. ACTTCGGA  0.261
6. CGTAATCA  0.243
7. AACGGAAA  0.241
8. GAGTATTA  0.222
9. TATTCCCA  0.199
10. ATAATACG  0.187
11. CTTTTGAA  0.173
12. CTTACTCC  0.141
13. ATGGGTAA  0.138
14. TCGCGTAA  0.131
15. AAATGCCG  0.13
16. ACATACCT  0.128
17. AAGAGTAA  0.125
18. GAGACTAA  0.114
19. AGTGTCTA  0.107
20. GTACTGAC  0.0973
21. ATTCCTCG  0.0857
22. GACAAAGA  0.0789
23. CAGTGTAA  0.0746
24. AGCCGTTA  0.073
25. AATAGCGG  0.0696
26. CACCCGCG  0.0598
27. CGCGAAAA  0.0499
28. AGAAATCG  0.0381
29. CTGATACC  0.0344
30. GACTCATA  0.0307
31. AACCACTG  0.0233
32. ACCTGAGA  0.0174
33. CCTAATCG  0.0171
34. ACTAACAC  0.0136
35. CTTGGAGA  0.006
36. TATAGGGA  -0.00128
37. AAAAGGAC  -0.00479
38. ACCGCAGT  -0.0133
39. CCGCCCCA  -0.0138
40. ACATACTG  -0.0193
41. CGATCTTC  -0.0203
42. CCTAAGGA  -0.0239
43. AAGCTGAC  -0.0245
44. ACTCCCCA  -0.0256
45. GCGATTCC  -0.0306
46. AAAGATAG  -0.0366
47. AGCGTAGC  -0.0434
48. GCAGAGTA  -0.0501
49. GGCCCTAA  -0.0545
50. AACGCATC  -0.0699
51. AGTCTCGA  -0.0775
52. AGTTAAGC  -0.085
53. CCTTCGTC  -0.0862
54. CGGATCCG  -0.0883
55. CTTACAAG  -0.0896
56. CTATAGTC  -0.0918
57. CGGTGCTC  -0.0954
58. ATTGAAGG  -0.0954
59. GGCACAAA  -0.103
60. GAGCCCGA  -0.103
61. AACTACGG  -0.104
62. GCGGGTCA  -0.109
63. GAGATTGC  -0.111
64. GTGGCAAC  -0.111
65. CCTGTGAC  -0.118
66. GCCGCGGA  -0.12
67. TCGGAGCA  -0.128
68. AGATGGTC  -0.132
69. CACTCACG  -0.14
70. GTCCAGCA  -0.142
71. CAAACGGC  -0.146
72. CTCCGCCC  -0.16
73. CCGAACCA  -0.167
74. CTAGTCAG  -0.169
75. AGGAGGTC  -0.171
76. AACCGTAT  -0.175
77. CCCCGTTA  -0.184
78. CGGCGCTC  -0.185
79. CGGGCAGC  -0.187
80. CTTCTCCC  -0.19
81. AACGCTCT  -0.191
82. GGACCCAC  -0.194
83. CAGAGTCA  -0.194
84. AGGCGACT  -0.205
85. AGCCCGCA  -0.222
86. CAACACCG  -0.222
87. AAGTCTCA  -0.223
88. CCGGCATC  -0.225
89. CCCTATGC  -0.234
90. CACGAGCG  -0.244
91. CAGCCCAG  -0.298
92. CCCTCTAC  -0.314
93. ACCGACCC  -0.32
94. CAGGCCCG  -0.336
